From US20230312682A1 (published 2023)

Molecular target: T1, CD47-His (human, UniProt Q08722 part only)
T1 construct: also called Human CD47-His; SIRPα-Fc fusion protein's ligand CD47-His
Test: ELISA, plate coated with CD47-His, anti-human Fc-HRP detection

T1 sequence (Q08722 other isoform, or with tags, fused parts or gaps limits assumed): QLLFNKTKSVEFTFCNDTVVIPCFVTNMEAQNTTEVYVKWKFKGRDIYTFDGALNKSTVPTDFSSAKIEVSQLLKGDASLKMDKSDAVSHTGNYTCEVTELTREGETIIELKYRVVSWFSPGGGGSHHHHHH

Height of top plateau: 0.0553 OD450
B1: Mutant-R95Q + K96R (Fc fusion)
chain: EEELQVIQPDKSVSVAAGESAILHCTVTSLIPVGPIQWFRGAGPARELIYNQKEGHFPRVTTVSESTKRENMDFSISISNITPADAGTYYCVKFQRGSPDTEFKSGAGTELSVRAKPSGGGGS[sequence of human IgG1 Fc omitted]
